Data set [1] is described as follows: In vivo half-life (β-phase) in BALB/c SCID mice.
Data set [2] relates to SK-BR-3 cells. As to the kind of experiment: Proliferation assay (MTS), SK-BR-3. The following applies: 5 days. It is filed as cell-based, human. On the procedure:
(§1) Cells were plated in 96 well plates at a density of 2,500 cells per well and incubated overnight. […] Antibodies were used at a concentration of 50 nM unless otherwise indicated. Dimethyl sulfoxide or phosphate buffered saline (PBS) were used as vehicle controls for lapatinib or HRG-β1/antibodies, respectively. After 5 days of incubation in a 37° C. 5% CO2 incubator, cell proliferation was quantitated using CellTiter 96 AQeous One Solution Proliferation Assay kit (Promega, catalog no. G3580) according to the manufacturer's instructions.

Data set [3] relates to BT-474 cells. As to the kind of experiment: Proliferation assay (MTS), BT-474. It is filed as cell-based, human. The following applies: 5 days. As to the method: as §1
For data set [4], the system named is HCC1419 cells. As to the kind of experiment: Proliferation assay (MTS), HCC1419. It is filed as cell-based, human. The following applies: 5 days. On the procedure:
as §1

In data set [5] the test system is SK-BR-3 cells. As to the kind of experiment: Immunoblotting of cell lysates, SK-BR-3. It is filed as cell-based, human. On the procedure:
(§2) Cells cultured to near confluence in 6 well plates were treated with lapatinib, HRG-β1 or antibodies as for proliferation assays. Following one or 24 hours incubation, cells were lysed using RIPA buffer (50 mM Tris, 150 mM NaCl, 0.5% sodium deoxycholate, 1% Triton X-100, 0.1% sodium dodecyl sulfate, 2 ug/mL aprotinin, 2 ug/mL leupeptin, 1 ug/mL pepstatin A, and 0.4 mg/mL pefabloc SC PLUS). Lysates were centrifuged for 20 minutes at 14,600 rpm at 4° C. and supernatants were collected. Protein concentrations in each lysate were determined using the BCA protein assay reagent (Pierce, catalog no. 23223). Total lysates were fractionated by SDS-PAGE and transferred onto polyvinylidene difluoride (PVDF) membranes (Millipore, catalog no. IPVH00010) or nitrocellulose membranes (Bio-Rad, catalog no 162.0145). Membranes were incubated with 5% bovine serum albumin in Tris-buffered saline with 0.1% Tween (TBST, pH 8.0) for 1 hour following transfer to block non-specific binding sites. Blocked membranes were incubated with primary antibodies overnight at 4° C. with agitation. Prior to incubation with the secondary antibodies conjugated to horseradish peroxidase, blots were washed three times (10 minutes/wash) with TB ST. Following incubation with secondary antibodies for 1 hour and washing, bound secondary antibody was detected using chemiluminescent detection regent (GE Healthcare, catalog no. RPN 2209/AF).

The test system of data set [6] is BT-474 cells. Kind of data set: Immunoblotting of cell lysates, BT-474. The format is cell-based, human. Conditions: 50 nM antibody. On the procedure:
as §2, with “Prior to incubation with the secondary antibodies conjugated to horseradish peroxidase, blots were washed three times (10 minutes/wash) with TB ST.” left out

In data set [7] the test system is HCC1419 cells. As to the kind of experiment: Immunoblotting of cell lysates, HCC1419. It is filed as cell-based, human. Conditions: 50 nM antibody + 1 μM lapatinib + heregulin 6.25 nM, 24 hours. Background: Immunoblotting shows a protein as a band on a membrane.
Data set [8] concerns SK-BR-3 cells. Kind of data set: Fluorescence microscopy of intracellular trafficking. It is filed as cell-based, human. Conditions: 50 nM. An excerpt: The combined pulse plus chase times are indicated on the left margin. Anti-HER3 or HER2/HER3 antibodies were detected with Alexa 555-labeled secondary antibody (pseudocolored red in overlay) and anti-EEA-1 antibody with Alexa 647-labeled secondary antibody (pseudocolored green in overlay). […] Scale bars=2 μm.
Cells were fixed, permeabilized and stained for LAMP-1. Anti-HER3 or HER2/HER3 antibodies were detected with Alexa 555-labeled secondary antibody (pseudocolored red in overlay) and anti-LAMP-1 antibody with Alexa 488-labeled secondary antibody (pseudocolored green in overlay). […] Scale bars=2 μm.
For fixation, cells were treated with 1.7% (w/v) paraformaldehyde for 10 minutes at 37° C. and then permeabilized with 0.05% (v/v) saponin for 10 minutes at room temperature in PBS. A pre-block with 4% BSA/PBS was carried out prior to staining with 2 μg/mL of polyclonal rabbit anti-LAMP-1 antibody (Abcam, catalog no. AB24170) and 12.5 μg/mL monoclonal mouse anti-EEA-1 (clone 14) from BD Bioscience (catalog no. 610456) for 30 minutes at room temperature. After blocking for 30 minutes with goat serum (Sigma-Aldrich, catalog no. G6767), bound primary antibodies were detected by incubating cells with the following secondary antibody conjugates for 25 minutes at room temperature: Alexa 555-labeled goat anti-human IgG (H+L) (Life Technologies, catalog no. A21433), Alexa 647-labeled goat anti-mouse IgG (H+L) (Life Technologies, catalog no. A21236) and Alexa 488-labeled goat anti-rabbit IgG (H+L) (Life Technologies, catalog no. A11034). Cells were washed twice with PBS between each incubation step and were stored at 4° C. in 1% BSA/PBS.
Images were acquired using a Zeiss Axiovert 200M inverted fluorescence microscope with a 63× Plan Apochromat objective as described previously. Data was processed using custom written software in MatLab (MIAtool/LABSoft; www.wardoberlab.com/software/miatool/).

[9] abbreviates: 50 nM antibody + 1 μM lapatinib + heregulin 6.25 nM.
Where [10] appears, read: 50 nM antibody, no heregulin, no lapatinib.
[11] abbreviates: 50 nM antibody + heregulin 6.25 nM.

Where only a bound is given, the exact number is not on record here.

B1: Ab6tet: tetrameric (tetravalent) anti-HER3 antibody: Ab6 scFv fused to the CH3 domains of Ab6 via a Gly-Ser-Ser linker (antibody)
heavy: QVQLQESGGGLVQPGGSLRLSCAASGFTFSHYVMAWVRQAPGKGLEWVSSISSSGGWTLYADSVKGRFTISRDNSKNTLYLQMNSLRAEDTAVYYCTRGLKMATIFDYWGQGTLVTVSS[in this place human IgG1 constant region]GSSQVQLLESGGGLVQPGGSLRLSCAASGFTFSHYVMAWVRQAPGKGLEWVSSISSSGGWTLYADSVKGRFTISRDNSKNTLYLQMNSLRAEDTAVYYCTRGLKMATIFDYWGQGTLVTVSSGGGGSGGGGSGGGGSDIQLTQPASVSGSPGQSITISCTGTSSDVGSYNVVSWYQQHPGKAPKLIIYEVSQRPSGVSNRFSGSKSGNTASLTISGLQTEDEADYYCCSYAGSSIFVIFGGGTKVTVL
light: DIELTQPASVSGSPGQSITISCTGTSSDVGSYNVVSWYQQHPGKAPKLIIYEVSQRPSGVSNRFSGSKSGNTASLTISGLQTEDEADYYCCSYAGSSIFVIFGGGTKLEIKRTVAAPSVFIFPPSDEQLKSGTASVVCLLNNFYPREAKVQWKVDNALQSGNSQESVTEQDSKDSTYSLSSTLTLSKADYEKHKVYACEVTHQGLSSPVTKSFNRGEC
B1: in data set [1], the “in vivo half-lives (β-phase)” value amounted to 228 ± 14 h. In addition, the “proliferation in the presence of heregulin and lapatinib” value with SK-BR-3 cells [2] (setting [9]) is recorded as “more effective than Ab6”; in the data set with BT-474 cells [3] (setting [9]) it was “anti-proliferative effects”; in the data set on HCC1419 cells [4] (setting [9]) it was “more effective than Ab6”. The proliferation entry with SK-BR-3 cells [2] (setting [10]) is “reduced proliferation”; in the data set on BT-474 cells [3] (setting [10]), “the effects were not significant”; with HCC1419 cells [4] (setting [10]), “reduced proliferation”. Besides, the “proliferation in the presence of heregulin” value in the data set with BT-474 cells [3] (setting [11]) and with HCC1419 cells [4] (setting [11]) was “ablated the inhibitory effects” throughout. Also, the “HER3 degradation (total HER3) in the presence of heregulin and lapatinib” value with SK-BR-3 cells [5] (50 nM antibody + 1 μM lapatinib + 6.25 nM heregulin, 3 or 6 hours, compared with Ab6) was “higher levels of HER3 degradation”. Also, in the data set with SK-BR-3 cells [5] (50 nM antibody + heregulin 6.25 nM, 24 hours), the “pAkt levels in the presence of heregulin” value was “a reduction”. Moreover, the “levels of pHER3, pErk and pAkt (S473, T308)” value in the data set with SK-BR-3 cells [5] (50 nM antibody + lapatinib + heregulin 6.25 nM) and with HCC1419 cells [7] was “lower levels” throughout. Also, in the data set with SK-BR-3 cells [5] (50 nM antibody, compared with Ab6), the “HER3 degradation (total HER3) at 3 or 9 hours” value is “higher levels of HER3 degradation”. For the same molecule, the “total HER3 levels / HER3 degradation at 24 hours” value in the data set on SK-BR-3 cells [5] (50 nM antibody, no heregulin) is reported as “increased degradation”; in the data set with BT-474 cells [6] (no heregulin) it was “increased degradation”. Besides, the “pErk levels at one hour” value in the data set on SK-BR-3 cells [5] (50 nM antibody, one hour, versus trastuzumab, pertuzumab, TAb6 or PAb6, not sustained at 24 hours) was “lower”; in the data set on BT-474 cells [6] (one hour, versus trastuzumab, pertuzumab, TAb6 or PAb6, not sustained at 24 hours), “lower”. Besides, the “localization following 15 minutes of treatment” value in the data set on SK-BR-3 cells [8] was “internalized into early endosomes”. In the data set on SK-BR-3 cells [8], the “rate of internalization into EEA-1 positive early endosomes” value is listed as “more rapidly than Ab6”. The “time of treatment within which antibody enters EEA-1 positive early endosomes” value with SK-BR-3 cells [8] (37° C.) was at most 5 min. In addition, the “localization within one hour of treatment” value in the data set on SK-BR-3 cells [8] (15 minutes pulse, 45 minutes chase) was “present in LAMP-1+ lysosomes”.
